# The other results are listed elsewhere or left out.
# Test system: PfHDP1 homeodomain (GST-tagged)
# Test: gcPBM binding intensity (ln(normalized median fluorescence intensity)); higher = stronger DNA binding
# How it was run: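 The binding buffer was 1× PBS containing 1% milk, 0.2 mg/ml BSA, 0.5% salmon testes DNA and 0.03% Triton X-100. In it, GST-tagged P. falciparum DNA-binding domains expressed in E. coli were applied for 1 h to an Agilent 4 × 180k array of primer-extended double-stranded 36-bp intergenic genomic probes plus negative controls. Binding intensity, read with Alexa488 anti-GST antibody and a 488 nm scan, is the highest Masliner-normalised natural-log median intensity across replicate spots of either probe orientation.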
row,Sequence,gcPBM binding intensity (ln)
1,ACAAAACTTTTAAGAACACACAAAAATGTACTATCG [CACACA_site7245],6.17
2,CATTTACATGCCAACATGCACTGAACAATCTTTATA [GTGCAC_site9797],7.98
3,TACAAAAAAAAATAAAATACATATATATATATATAT [XGTACX_negctrl_site608],9.32
4,CCCTATATAAATAGCTGTACATTTGAACATGTTCAG [XGTACX_site2187],6.52
5,TTTTATGAATAATTATGTACATAACAAATGATATAT [XGTACX_site8318],6.84
6,TAAAGTTATATATTATGTACATATTTGTATACATTT [XGTACX_site2516],6.46
7,TTTTTTTATACAATTTTATATATTAAATATTATAAT [CACACA_negctrl_site226],6.46
8,AAAGAAAACGGACTTTGTACTTAAATATAATATAAA [XGTACX_site8585],6.47
9,CAATAAATCGAAATCGTGCACGGACACATGCAGTAG,10.9
10,ATATATATAATAAGTGGTACAAGTTATTCATTAAAT [XGTACX_site7063],6.72
11,GGTTCATTTATATGGAGTACAAAAAATATGTATATA [XGTACX_site8209],6.59
12,AAATAATATAAATACACACACACATATATAAATACA [CACACA_site4465],7.06
13,TTATGTGATTTTAATTGTACATAAATATTTGTTAAC [XGTACX_site3489],6.71
14,TATATACTCAGACATACACACAAATAAAAAAACACC [CACACA_site5820],7.58
15,CACGCATACAGACACACACACACACGGATATAAATA [CACACA_site6445],7.12
16,AAATATAGTATTAAAACACACATTTATATAAAAAGG [CACACA_site1482],6.51
17,AACAAAAAAACAAACACACACACACGCATATTTATA [CACACA_site7680],6.71
18,TGAACTCATAGGAAAACACACATATGTGTAATATAT [CACACA_site4267],7.27
19,AAAAACAACACAGATAAATTAACACACACACACATA [XGTACX_negctrl_site588],7.34

row,Sequence,gcPBM binding intensity (ln)
1,TATTTGTATAAATAAAAATAATATATATCAAATAAC [CACACA_negctrl_site218],6.4
2,AACACCCACAGACACACACACAAAAATGATTAAAAA [CACACA_site2433],6.82
3,TTTTTATATAAATAATGTACATTTGGTTTTATTATA [XGTACX_site2125],6.78
4,ACAAAAATATTATATTGTACATTATTAGTTCATATT [XGTACX_site6750],6.32
5,CATATATATAATTATTCACACAATAGTTAAAAGTAT [CACACA_site5302],6.62
6,TTTTTTTTTGAATATTGTACATATATATTACTTTTA [XGTACX_site5520],6.51
7,AAAAAATTATATAAATGTACATTTTGGCTAGACATG [XGTACX_site5977],6.54
8,TACATAAATTAAAACACACACACACTAATAAAAAAA [CACACA_site8712],6.9
9,ATATGTATGTATGTATGTACTTATTTATTTATTAAT [XGTACX_site8018],6.25
10,TAGCTCGTTCGGAGCACACACATATATATATATATA [CACACA_site1948],9.28
11,ATTCAATATATATACACACACACTTTTAATAATTAA [CACACA_site3770],6.95
12,GTTTTATTTTGTTTCTATTTGACACATGTGATTATT [CACACA_negctrl_site1246],7.01
13,ATATGTATTTATATATGTTTGATTTTTTTTTTTTTT [TGCATGCA_negctrl_site506],6.23
14,CATACAGACATACATACACACATACCTATAAATATA [CACACA_site6995],6.95
15,AAATGAAATAAAATCATATATTTATAATTATTATAA [TGCATGCA_negctrl_site612],6.07
16,AGGAAAAAAGAAAAAACACACATAAATATATATATA [CACACA_site3085],8.71
17,ATATTCTGCTGTTTAGTGCAATTATGAAATTATGAT,8.91
18,AAAGAGAACAGAAGTACACACATGTTCTTTTAGTAA [CACACA_site5557],6.28
19,AAAAAAAACAAACACACACACAAATATTTATATATT [CACACA_site436],6.76

row,Sequence,gcPBM binding intensity (ln)
1,TTTTTTTTTCTTTGGTGTACAATGTAATAGAAAATA [XGTACX_site227],6.42
2,TAAAAAGAAATGTAAAGTACAAATTTGAATAACATG [XGTACX_site7981],6.58
3,TAAAAAATAAAAATTGCACACTAAAAAATTACCCAC [CACACA_site5823],9.35
4,TTGATTTTTATTTTTAAAATAAATAAATTTCAAATG [TGCATGCA_negctrl_site199],5.95
5,CTAGTAAAAAATGCAAGTACATACATTATAAGTATA [XGTACX_site3908],6.55
6,ATATTGGAGCACAACACACACAAGTATAAATATGGA [CACACA_site6834],8.3
7,AAAAAACACGCACATACACACAAAAATGTTATAAAT [CACACA_site6188],7.49
8,ATCTCATAAAACCGCACACACATAAAATTTGCATTA [CACACA_site3891],8.02
9,TTATATTTTTTAATTACACACAATTTTTATAAATAT [CACACA_site4148],6.66
10,TCTTGTAAATATATGTGTATATTATATTTTATTATA [TGCATGCA_negctrl_site117],6.4
11,TGTTAAAATAAAATCTATTACATTTTTATGGTTATA [XGTACX_negctrl_site525],5.95
12,TGCAAGGAAAAACACACACACACATAAATGTATATA [CACACA_site751],6.74
13,CTTAATATTCTTTAAAGTACACAAAATAAGAATATA [XGTACX_site5489],6.55
14,ATTTCATATACAAATTGTACATACAATTTTATGTTT [XGTACX_site3240],6.46
15,TTAAAAATAATATTATGTACTAAGAATAAATATATA [XGTACX_site3100],6.47
16,AATATATATATATTCACACATAAAAAAGTAAAAAAA [CACACA_site5040],6.79
17,CACACGCACGAACACACACACACACGCATATAAATA [CACACA_site6302],7.67
18,TATCTCATAGTATACACACACACACCCACCCATATA [CACACA_site1739],7.52

# Source: the supplement of paper PMC11417369
